These results are taken from paper PMC10433847, “The Plasmodium Lactate/H^+ Transporter PfFNT Is Essential and Druggable In Vivo” (Antimicrobial Agents and Chemotherapy, 2023).

The subject of assay [1] is DMSO-treated wild-type parasites (NF54 diCre conditional PfFNT G107S line). Briefly: EC50 of conditional PfFNT line, DMSO-treated wild-type (SYBR Green). The note with it: 96 h, mean ± SEM.
The subject of assay [2] is rapamycin-treated G107S mutant parasites. Briefly: EC50 of conditional PfFNT line, rapamycin-treated G107S mutant (SYBR Green). The settings on record: 96 h, mean ± SEM.
Assay [3] relates to P. falciparum parasites with PfFNT G107S mutation. The experiment in a line: EC50 determination by flow cytometry, drug-selected parasites with PfFNT G107S. Type of assay: cell-based, Plasmodium falciparum. The settings on record: G107S mutation vs 3D7 wild-type. Here is the method:
P. falciparum parasites, 3D7, were cultured in RPMI 1640 medium supplemented with 0.5% Albumax with 0+ erythrocytes (University Medical Center Hamburg-Eppendorf, Hamburg, Germany) at a 5% hematocrit at 37°C in an atmosphere containing 5% CO2, 1% O2, and 94% N2 under standard conditions ([31]). To obtain resistant parasites, 50 mL of parasite culture, starting with 5 × 10^8 to 6 × 10^8 parasites, were exposed to 3 × IC50 of either MMV007839 or BH267.meta until parasitemia was established again (around 2 weeks). For sequencing of the fnt gene, genomic DNA from the susceptible and resistant P. falciparum parasite lines was obtained from 5 mL of culture using the QIAamp DNA minikit (Qiagen, Hilden, Germany). The primer sequences used to sequence the entire fnt gene are available in Table S2. To determine the EC50, asynchronous parasites (0.5% to 1% starting parasitemia) were exposed to serial dilutions of the drug and grown for 2 days with one change of medium (including the appropriate concentration of drug), after which the parasitemia was determined using an LSR II FACS (BD Biosciences, Franklin Lakes, NJ) as previously described ([32]). The data were analyzed in GraphPad Prism to determine EC50 values.

`O=C(/C=C(\O)C(F)(F)C(F)(F)F)c1cccnc1` [BH267.meta]: the half-maximal effective concentration (EC50) stood at 0.173 ± 0.078 µM in assay [1] and 38.8 ± 1.96 µM in assay [2].

With `COc1ccc(C(=O)/C=C(\O)C(F)(F)C(F)(F)F)cc1` [BH296], in assay [3], the “fold increased IC50” value came to 2.8 fold. Also, the figures for the EC50 in assay [1] and in assay [2] were 4.04 ± 1.08 µM and 15 ± 0.746 µM, respectively.

On to `COc1ccc2c(c1)OC(O)(C(F)(F)C(F)(F)F)CC2=O` (stereo not shown) [MMV007839], for which the concentration giving a half-maximal response (EC50) in assay [1] was found to be 0.148 ± 0.048 µM; in assay [2], 47.7 ± 1.06 µM.
